The results in this text go back to PubChem BioAssay AID360 (National Center for Advancing Translational Sciences (NCATS), 2006).

Screen size: about 48,000 compounds; about 550 (1.1%) were called active. About 4% were inconclusive and are not listed. Rule as the data show it: active = potency below about 15 µM; inconclusive = mostly about 16 µM to 33 µM; inactive = weaker than that. The list shows a part of the results.
Potency is read from the fitted curve at half-maximal effect.

Chain of UniProt P04062 (P04062 whole entry, looked up): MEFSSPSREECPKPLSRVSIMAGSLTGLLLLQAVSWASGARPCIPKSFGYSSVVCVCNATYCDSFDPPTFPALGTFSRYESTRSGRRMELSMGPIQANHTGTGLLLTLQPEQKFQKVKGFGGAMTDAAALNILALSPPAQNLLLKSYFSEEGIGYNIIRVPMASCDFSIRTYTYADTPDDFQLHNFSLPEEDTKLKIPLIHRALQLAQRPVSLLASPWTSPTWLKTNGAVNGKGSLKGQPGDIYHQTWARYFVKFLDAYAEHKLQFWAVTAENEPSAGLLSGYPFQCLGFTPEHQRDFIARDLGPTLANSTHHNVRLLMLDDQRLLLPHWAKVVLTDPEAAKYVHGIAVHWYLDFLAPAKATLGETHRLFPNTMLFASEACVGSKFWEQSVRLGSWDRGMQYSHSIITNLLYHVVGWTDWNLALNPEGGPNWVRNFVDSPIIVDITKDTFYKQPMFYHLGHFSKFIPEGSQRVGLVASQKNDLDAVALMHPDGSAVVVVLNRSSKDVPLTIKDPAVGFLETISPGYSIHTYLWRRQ

The target of the assay is Lysosomal acid glucosylceramidase (Homo sapiens) (UniProt P04062). The experiment in a line: Glucocerebrosidase.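 Also: the screen sought inhibitors.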 Conditions: purified enzyme, resorufin glucoside fluorescence (screen aimed at inhibitors), 20 min; series mostly up to 77 µM. An outline of the steps:
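Wild-type enzyme at 0.2 nM final in 50mM citric acid/KH2PO4, 10mM sodium taurocholate, 0.01% tween-20, pH 5.9, with resorufin beta-D-glucopyranoside at 30 uM final. Compounds titrated, 20 min at RT, red fluorescence read; AC50 from titration.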
With `CCOC(=O)C1CCN(C(=O)c2cc(OCC)c(OCC)c(OCC)c2)CC1`, the Potency is inactive: > 76.9 µM.
For `c1ccc(CCc2nn3c(Cc4ccccc4)nnc3s2)cc1` the value was inactive: > 76.9 µM; for `O=C1c2ccccc2C(=O)N1CCOCCN1C(=O)c2ccccc2C1=O`, inactive: > 76.9 µM; for `COc1ccc(N(C(=O)c2ccco2)S(=O)(=O)c2cc(OC)ccc2OC)cc1`, inactive: > 76.9 µM.
In the case of `Cn1c(SCC(=O)Nc2nccs2)nnc1-c1ccncc1`, the Potency is inactive: > 76.9 µM.
For `O=C(C1CCN(S(=O)(=O)N2CCOCC2)CC1)N1CCN(Cc2ccc3c(c2)OCO3)CC1` the value was inactive: > 76.9 µM.
As to `CSc1nncc(-c2ccc(F)cc2)n1`, the Potency was inactive: > 76.9 µM.
For `O=C(c1ccc(F)cc1)N1CCCCC(Sc2nnc3ccccn23)C1=O` (configuration not stated) the value was inactive: > 76.9 µM; for `O=C(CCS(=O)(=O)c1ccc(Cl)cc1)OCC(=O)N1CCCCC1`, “inactive”; for `CCCCn1c(N)c(N(CCC(C)C)C(=O)COC(=O)c2ccco2)c(=O)[nH]c1=O`, inactive: > 76.9 µM.
Regarding `CCOC(=O)N1CCN(C(=O)c2cnn3c(C(F)F)cc(-c4ccc(C)cc4)nc23)CC1`, the Potency was inactive: > 76.9 µM.
For `CCN(CC)C(=O)C1=C(C)NC(=O)NC1c1ccccc1F` (configuration not stated) the value was inactive: > 76.9 µM; for `O=C(CSc1nnc(-c2cccs2)n1-c1ccccc1)NCc1ccco1`, “inactive”; for `Cc1cc(-c2ccco2)n(-c2ccccc2)n1`, inactive: > 76.9 µM.
For `N#Cc1ccc(CSc2nnc(-c3cccc(S(=O)(=O)N4CCCCC4)c3)o2)cc1`, the Potency is inactive: > 76.9 µM.
For the compound `CCSc1nnc(-c2ccccc2NC(=O)CC)c(=O)[nH]1`, the Potency was inactive: > 76.9 µM.
For `O=C(NCCc1cn2ccccc2n1)c1ccccc1F` the value was inactive: > 76.9 µM; for `CCC(=Nc1ccc(N)cc1)C1=C(O)C(C(=O)OC)C(C)(C)CC1=O` (configuration not stated), inactive: > 76.9 µM.
Turning to `O=C(OCc1cc2ccccc2[nH]c1=O)c1ccco1`, the Potency is inactive: > 76.9 µM.
For `COc1cccc(CN2CCN(c3cccc(C(F)(F)F)c3)CC2)c1OC` the value was inactive: > 76.9 µM.
For `CC1CC(C)CN(CCCNC(=O)Cc2c(C(=O)O)[nH]c3ccccc23)C1` (configuration not stated) the value was inactive: > 76.9 µM; for `CCOc1ccc(C2C(=O)N(C3CCCCC3)CC(=O)N2CC2CCCO2)cc1OC` (configuration not stated), inactive: > 76.9 µM; for `O=C(O)C1CCN(S(=O)(=O)c2ccc(Oc3ccccc3)cc2)CC1`, inactive: > 76.9 µM.
For `CCCCCC(=O)N(CN1C(=O)CCC1=O)c1ccccc1` the value was inactive: > 76.9 µM; for `O=C(Nc1ccccc1Cl)N1CCN(c2ncccn2)CC1`, inactive: > 76.9 µM; for `COc1ccc(S(=O)(=O)Nc2ccc(CC#N)cc2)cc1`, inactive: > 76.9 µM.
`CCn1c(COc2ccc(C)cc2)nnc1SCC(=O)Nc1ccc(S(N)(=O)=O)cc1`: the Potency was inactive: > 76.9 µM.
As to `C=CCn1c(SCc2ccc(C(=O)OC)cc2)nnc1-c1sc(N)nc1C`, the Potency is inactive: > 76.9 µM.
Turning to `COc1ccc(OC)c(NC(=O)Cn2c(CCC(=O)O)ccc2-c2cccs2)c1`, the Potency is inactive: > 76.9 µM.
For `O=C(Nc1ccccc1)c1ccc(S(=O)(=O)NCC2CCCO2)cc1` (configuration not stated), the Potency is inactive: > 76.9 µM.
Take `COc1ccccc1NC(=O)CC(=O)CSc1nnc(-c2ccc(C)cc2)n1C`: the Potency was inactive: > 76.9 µM.
For `COc1cc(NS(=O)(=O)N2CCCC2)cc(OC)c1OC` the value was inactive: > 76.9 µM; for `N#CCCN(C(=O)Nc1ccc(Cl)cc1)c1ccccc1`, inactive: > 76.9 µM.
`Cc1cc(NCCN2CCOCC2)n2ncc(-c3ccc(Cl)cc3)c2n1`: the Potency entry is “inactive”.
Take `O=C(CCC1COc2ccccc2O1)Nc1ncccc1O` (configuration not stated): the Potency was inactive: > 76.9 µM.
In the case of `Cc1ccc(-c2cc(C(=O)NCc3cccnc3)no2)cc1`, the Potency was inactive: > 76.9 µM.
For `N#Cc1nn(-c2ccccc2)nc1N1CCCCC1` the value was inactive: > 76.9 µM.
For `O=C(O)C1C2C=CC(C2)C1C(=O)NC1CCN(Cc2ccccc2)CC1` (configuration not stated) the value was inactive: > 76.9 µM; for `CC(C)CCNC(=O)COc1ccc2c3c(c(=O)oc2c1)CCC3`, inactive: > 76.9 µM; for `O=C(O)COc1ccc(C(=O)Cc2ccc3c(c2)OCCCO3)c(O)c1`, inactive: > 76.9 µM.
With `CCOCCn1c(N2CCN(c3ccccc3)CC2)nc2c1c(=O)n(C)c(=O)n2C`, the Potency is inactive: > 76.9 µM.
For `CSc1nnc(Cn2c(=O)sc3ccccc32)n1-c1cccc(Cl)c1` the value was inactive: > 76.9 µM; for `CCC(=O)Nc1cccc(-c2cn3ccsc3n2)c1`, inactive: > 76.9 µM; for `Cc1nc2nc[nH]n2c(=O)c1NC(=O)CCc1ccccc1`, inactive: > 76.9 µM.
With `O=C(NCCN1CCCC1)C1COc2ccccc2O1` (configuration not stated), the Potency was inactive: > 76.9 µM.
`Cc1csc2nnc(N)n12`: the Potency was inactive: > 76.9 µM.
For `O=C(CN1CCc2ccccc21)Nc1ccc2c(c1)OCO2` the value was inactive: > 76.9 µM; for `COc1ccc(NC(=O)CSc2c(C)nn(-c3nnc(C)c(=O)[nH]3)c2C)cc1`, inactive: > 76.9 µM.
For `CCN(CC)CCNC(=O)Cn1cnc2sc(C)c(S(=O)(=O)N3CCOCC3)c2c1=O` the value was inactive: > 76.9 µM.
Regarding `COc1ccc(C(=O)Cn2c(N3CCOCC3)nc3c2c(=O)n(C)c(=O)n3C)cc1`, the Potency is inactive: > 76.9 µM.
For `O=C(CN(Cc1cccs1)C(=O)CNS(=O)(=O)c1ccccc1)NCc1ccco1` the value was inactive: > 76.9 µM; for `CCC(C(=O)NC1CCCC1)N(Cc1ccco1)C(=O)Cn1nnc(-c2ccc(C)cc2)n1` (configuration not stated), inactive: > 76.9 µM; for `O=C(Cn1c(=O)[nH]c2ccsc2c1=O)NC1CCCCC1`, inactive: > 76.9 µM.
For `Cc1cccc(NC(=O)c2ccc(S(=O)(=O)N(C)C)cc2)n1` the value was inactive: > 76.9 µM; for `O=C(Nc1ccc(-n2nncc2-c2ccco2)cc1)c1cc2ccccc2oc1=O`, inactive: > 76.9 µM; for `CCC1CCCCN1C(=O)c1nn2cccnc2c1Cl` (configuration not stated), inactive: > 76.9 µM.
Consider `CN(C)c1oc(-c2ccccc2)nc1C#N`, for which the Potency is inactive: > 76.9 µM.
As to `COc1ccc(N(CC(=O)NCc2cccs2)S(=O)(=O)c2c(C)n[nH]c2C)cc1`, the Potency was inactive: > 76.9 µM.
For `COC(=O)c1cccc(NC(=O)CSc2nc3cccnc3n2C)c1` the value was inactive: > 76.9 µM.
For the compound `c1ccc2c(c1)nc1n2CCS1`, the Potency was inactive: > 76.9 µM.
For `CCOc1ccc(N2C(=O)CC(NCc3ccc(F)cc3)C2=O)cc1` (configuration not stated) the value was inactive: > 76.9 µM; for `CCOc1ccc(-n2c(Cc3cc(=O)[nH]c(=O)[nH]3)nnc2SCC)cc1`, inactive: > 76.9 µM; for `COc1ccc(-c2[nH]nc3c2C(c2ccc(OC(=O)N4CCOCC4)cc2)C(C#N)=C(N)O3)cc1` (configuration not stated), inactive: > 76.9 µM.
For `Cc1csc(=Nc2c(C)n(C)n(-c3ccccc3)c2=O)n1Cc1ccccc1` the value was inactive: > 76.9 µM; for `CN(Cc1ccco1)C(=O)C1CCC(=O)N1Cc1ccc(F)cc1` (configuration not stated), inactive: > 76.9 µM; for `CCC(Sc1nnc(-c2ccc(C)c(Cl)c2)n1CC)C(=O)Nc1nccs1` (configuration not stated), inactive: > 76.9 µM.
For `Cc1[nH]c2c(Cl)cccc2c(=O)c1CN1CCCC1` the value was inactive: > 76.9 µM.
Consider `O=C(O)CCc1nc(-c2ccccc2)no1`, for which the Potency is inactive: > 76.9 µM.
Consider `O=C(NCc1ccco1)NCC(F)(F)F`, for which the Potency is inactive: > 76.9 µM.
In the case of `COC(=O)C1=C(CSc2nc3ccccc3o2)NC(=O)NC1c1cc(C)ccc1C` (configuration not stated), the Potency was inactive: > 76.9 µM.
In the case of `CCOc1ccc(-n2c(Cc3cc(=O)[nH]c(=O)[nH]3)nnc2SC(C)C)cc1`, the Potency was inactive: > 76.9 µM.
For `COc1cccc(-n2ccnc2SCC(=O)Nc2ccccc2)c1` the value was inactive: > 76.9 µM; for `Nc1cc(=O)[nH]c(=O)n1Cc1ccco1`, inactive: > 76.9 µM; for `COP(C)(=O)c1c(C)nn(-c2ccccc2)c1C` (configuration not stated), inactive: > 76.9 µM.
On to `O=C(CNC1CCCCCC1)Nc1ccc(S(=O)(=O)NC2CC2)cc1`, for which the Potency is inactive: > 76.9 µM.
For `CCOC(=O)Cn1c(N)c(C(=O)OC)sc1=S` the value was “inactive”; for `COc1ccc(C(=O)NCC(C)CN(C)C)cc1` (configuration not stated), inactive: > 76.9 µM.
Regarding `CCS(=O)(=O)Nc1ccc2c(c1)N(C(C)=O)c1ccccc1CC2`, the Potency was inactive: > 76.9 µM.
For `Fc1ccc(-c2nnc3sc(C4COc5ccccc5O4)nn23)cc1` (configuration not stated) the value was inactive: > 76.9 µM; for `Cc1ccc(NC(=O)COC(=O)Cn2c(C)csc2=O)cc1`, inactive: > 76.9 µM; for `CCc1c(C)c2ccc(OCC(N)=O)cc2oc1=O`, inactive: > 76.9 µM.
Take `CC1CN(S(=O)(=O)c2cccc(C(=O)NCc3ccc4c(c3)OCO4)c2)CC(C)O1` (configuration not stated): the Potency was inactive: > 76.9 µM.
For `CC(=O)Cc1nsc(NC(=O)c2ccc(-c3cc(C(F)(F)F)ccc3Cl)o2)n1` the value was inactive: > 76.9 µM; for `CCC1=NC(c2ccc(OC)cc2OC)N(O)C1(C)C` (configuration not stated), inactive: > 76.9 µM.
For `CC(=O)C(C(C)=O)c1c(Cl)c(O)c(O)c2c(C(=O)c3ccccc3)coc12`, the Potency was inactive: > 76.9 µM.
In the case of `Cc1ccc2c(c1)CCCN2C(=O)Nc1ccc2c(c1)OCO2`, the Potency was inactive: > 76.9 µM.
Consider `COC(=O)c1ccc(CSc2nnc(CNC(=O)c3cccs3)o2)o1`, for which the Potency was inactive: > 76.9 µM.
For `O=C(O)C1C2C=CC(C2)C1C(=O)Nc1ccc2c(c1)OCCO2` (configuration not stated) the value was inactive: > 76.9 µM.
With `COC(=O)c1ccc2c(=O)n(CCCN3CCCC3=O)c(=S)[nH]c2c1`, the Potency was inactive: > 76.9 µM.
For `CS(=O)(=O)N1CCC(C(=O)NCCC2=CCCCC2)CC1` the value was inactive: > 76.9 µM; for `CC(=O)N1CC2(C)CN(C(C)=O)CC(C)(C1)C2O` (configuration not stated), inactive: > 76.9 µM.
For `CCNS(=O)(=O)c1ccc(NC(=O)c2cc(C(F)(F)F)nn2C)cc1` the value was inactive: > 76.9 µM.
